Measured values published in the supplement of paper PMC10441789.
This is one part of the list. Antibody binding of pooled human sera (four to six donors per pool; dilution not stated) to peptides of the Trypanosoma cruzi antigen TSSA on microarrays. Quantile-normalised fluorescence in arbitrary units, mean of duplicate arrays; higher = more binding. No active / inactive call. The uninfected pools are read here as the healthy donors of the same country. The strongest signals lie near the top of the scale (about 60,000).

These sequences were tested on pooled sera of uninfected people, Brazil (assay: antibody binding signal (normalised fluorescence) (arbitrary fluorescence units); higher = stronger serum antibody binding to peptide).
Experimental: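 Microarray of overlapping 15-residue peptides of the four Trypanosoma cruzi TSSA reference variants and 8- to 13-residue peptides of TSSAII 24-62, probed with one serum pool per country.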
In the case of GGSTISTPPSGTEKK, the antibody binding signal is reported as 175.
In the case of APSQPGASSGEA, the antibody binding signal is reported as 160.
With EKKAAAGEAPSPSGA the antibody binding signal was 122.
STSSTPPSGTE was tested, and the antibody binding signal was 124.
For PATGEAPSQ, the antibody binding signal was 177.
PGASSGEAE showed an antibody binding signal of 119.
STSSTPPS showed an antibody binding signal of 168.
TENKPATGEAPSQ was tested, and the antibody binding signal was 295.
With GGSTSSTPPSGTENK the antibody binding signal was 686.
With ENKPATGE the antibody binding signal was 139.
Sequence SSGEAEASS has an antibody binding signal of 106.
SACTTANGGSTISTP was tested, and the antibody binding signal was 117.
Work on QPGASSGEAEA yielded an antibody binding signal of 116.
NKPATGEAPSQP showed an antibody binding signal of 514.
With NKPATGEAPSQPG the antibody binding signal was 792.
Sequence SGTENKPATGEAP has an antibody binding signal of 359.
Work on TGEAPSQPG yielded an antibody binding signal of 348.
Work on PATGEAPSQP yielded an antibody binding signal of 350.
Work on ANGGSTSSTP yielded an antibody binding signal of 252.
With QPGASSGEAE the antibody binding signal was 115.
Work on TANGGSTISTPPSGT yielded an antibody binding signal of 171.
In the case of PSGTDKKTAAGEAPS, the antibody binding signal is reported as 269.
In the case of SSTPPSGTENKPATG, the antibody binding signal is reported as 1160.
Work on GSTISTPPSGTDKKT yielded an antibody binding signal of 185.
Work on ATGEAPSQPGAS yielded an antibody binding signal of 229.
With PSGTENKPATG the antibody binding signal was 934.
In the case of TPPSGTENK, the antibody binding signal is reported as 425.
For SGTEKKAAAGEAPSP, the antibody binding signal was 3040.
GEAPSQPGASS was tested, and the antibody binding signal was 165.
Sequence STPPSGTENKPAT has an antibody binding signal of 629.
Work on GTPSPSGASSGEAEA yielded an antibody binding signal of 125.
NGGSTSST was tested, and the antibody binding signal was 197.
Sequence ATGEAPSQPG has an antibody binding signal of 305.
GSTSSTPPSGTENKP was tested, and the antibody binding signal was 559.
Sequence PGTDKKTAAGGTPSP has an antibody binding signal of 1050.
With SGEAEASS the antibody binding signal was 83.1.
For TENKPATGE, the antibody binding signal was 163.
In the case of TGEAPSQPGA, the antibody binding signal is reported as 225.
TSSTPPSGTENK gave an antibody binding signal of 350.
Sequence ASSGEAEAS has an antibody binding signal of 113.
